Laboratory results published in article PMC4336329 (PLoS ONE, 2015).
The campaign covered roughly 310,000 compounds. About 14,000 (4.5%) showed an effect of 50% or more. Effects have a minus sign here. Some of the results follow.

biological target: human ether-à-go-go-related gene (hERG) potassium channel (human, UniProt Q12809); test: primary screen, population patch clamp on CHO cells stably expressing hERG
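Also: peak tail current of the secondary pulse compared with the same well before compound.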

human ether-à-go-go-related gene (hERG) potassium channel, sequence (Q12809 whole entry, looked up): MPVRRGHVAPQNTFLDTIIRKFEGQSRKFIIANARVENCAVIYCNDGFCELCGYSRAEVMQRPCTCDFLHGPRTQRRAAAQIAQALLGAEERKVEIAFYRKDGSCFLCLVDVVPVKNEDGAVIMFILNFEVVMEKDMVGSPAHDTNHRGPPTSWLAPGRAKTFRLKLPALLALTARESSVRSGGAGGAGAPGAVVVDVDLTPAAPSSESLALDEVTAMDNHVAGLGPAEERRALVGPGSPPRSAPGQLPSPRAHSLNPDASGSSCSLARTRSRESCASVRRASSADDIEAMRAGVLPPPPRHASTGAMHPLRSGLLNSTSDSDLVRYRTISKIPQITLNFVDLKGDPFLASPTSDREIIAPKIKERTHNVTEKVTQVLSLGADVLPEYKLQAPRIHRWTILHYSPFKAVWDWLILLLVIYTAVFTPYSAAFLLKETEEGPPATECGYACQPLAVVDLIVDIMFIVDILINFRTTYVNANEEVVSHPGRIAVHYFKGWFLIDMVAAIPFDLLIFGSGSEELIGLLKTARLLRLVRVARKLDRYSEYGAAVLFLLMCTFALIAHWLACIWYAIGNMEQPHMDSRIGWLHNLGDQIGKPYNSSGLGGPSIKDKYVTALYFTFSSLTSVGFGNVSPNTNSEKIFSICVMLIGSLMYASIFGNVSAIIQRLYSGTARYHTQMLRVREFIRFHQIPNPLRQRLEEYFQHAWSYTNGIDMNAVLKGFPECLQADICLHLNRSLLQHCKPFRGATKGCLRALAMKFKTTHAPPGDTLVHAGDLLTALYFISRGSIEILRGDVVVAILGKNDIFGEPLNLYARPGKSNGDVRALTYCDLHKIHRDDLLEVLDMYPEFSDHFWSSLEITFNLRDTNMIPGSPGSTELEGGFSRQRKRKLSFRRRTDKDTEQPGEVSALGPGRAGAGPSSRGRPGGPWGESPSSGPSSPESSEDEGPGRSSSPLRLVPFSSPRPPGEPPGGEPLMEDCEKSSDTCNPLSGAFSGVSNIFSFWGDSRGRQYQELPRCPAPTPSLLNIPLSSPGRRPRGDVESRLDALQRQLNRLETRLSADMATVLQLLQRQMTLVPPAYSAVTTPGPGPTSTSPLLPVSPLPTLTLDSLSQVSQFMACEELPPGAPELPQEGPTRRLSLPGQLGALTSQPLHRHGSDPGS

| Structure (SMILES) | hERG current change (%, negative = inhibition) at 10uM [%] |
| --- | --- |
| Cc1ccccc1C(=O)NC1CCN(C(=O)Nc2ccccc2Cl)CC1 | 44.9 |
| COc1ccccc1-c1nnc(-c2ccc(N3CCOCC3)cc2)o1 | -35.9 |
| Cc1ccccc1CN1[C@@H]2c3ccccc3C[C@@H]2OCCS1(=O)=O | -3.4 |
| CC1CC(=O)N(Cc2ccccc2)c2ccccc2N1C=O (centres unmarked) | -4.41 |
| CN1CCc2c([nH]c3ccccc23)C1 | 12.5 |
| CC12CN3CC(c4ccccc4)(CN(C1)C31CCCCC1)C2=O | -10.8 |
| CCNC(=O)/C(C#N)=C/c1c(N2CCCCCC2)nc2c(C)cccn2c1=O | -12.2 |
| Cc1ccc(CNCc2cccnc2)cc1 | 6.45 |
| Cc1ccc(NCc2nnc(SCC(=O)Nc3ncc(C)s3)n2CC2CCCO2)c(C)c1 (centres unmarked) | -12.4 |
| Cc1cccc(C(=O)OCC(=O)NN2C(=O)NC3(CCCCC3)C2=O)c1 | 19.7 |
| CCNc1nc(NCC)nc(ON=C(C)C)n1 | 18.1 |
| O=C(O)c1ccccc1NS(=O)(=O)c1cccc2nsnc12 | 18.3 |
| O=C(NCc1ccncc1)C(=O)NCC1OCCN1S(=O)(=O)c1ccc(Cl)cc1 (centres unmarked) | 4.42 |
| CCCOC(=O)c1ccc(NC(=O)/C=C/c2cccs2)cc1 | 0.453 |
| COc1ccc(C)cc1N(CC(=O)Nc1cccc(N(C)S(C)(=O)=O)c1)S(C)(=O)=O | -13.8 |
| O=C(CCN1C(=O)COc2ccccc21)NCCCN1CCN(c2ccc(F)cc2)CC1 | -63.7 |
| CC(=O)Cc1nsc(Nc2ccc(F)cc2)n1 | 5.29 |
| CCC(CC)C(=O)N(CCc1ccc(OC)cc1)Cc1nc2ccccc2c(=O)[nH]1 | -12.5 |
| COc1ccccc1NC(=O)c1cn(CCC#N)nc1-c1ccc(F)cc1 | 5.36 |
| Cc1ccc(-n2nc(C(=O)NCc3ccc(C)o3)c3c4ccccc4n(C)c3c2=O)cc1 | -3.05 |
| Cc1ccc(C2CC(c3ccc(Cl)cc3)n3nc(N)nc3N2)cc1 (centres unmarked) | -10.7 |
| Cl.N=c1n(CCN2CCCC2)c2ccccc2n1CC(O)c1ccco1 (centres unmarked) | -34 |

| Structure (SMILES) | hERG current change (%, negative = inhibition) at 10uM [%] |
| --- | --- |
| Cc1ccc(C)c(S(=O)(=O)c2c(C)cc(C)nc2Cl)c1 | -5.61 |
| COc1ccc(/C=N/NC(=O)C2C3CCCCC32C)cc1OC (centres unmarked) | 7.83 |
| O=C1C(C=Nc2ccccc2)=C(O)c2ccccc21 | -12 |
| COC(=O)c1ccc2c(=O)n(NC(C)=O)c(=S)[nH]c2c1 | 12.7 |
| C/C(=N\NC(=O)c1nn(C)cc1Br)c1cccc(NC(=O)C2CCCC2)c1 | -9.3 |
| Cc1cc(C)nc(NC(=O)CSc2nccc(C)n2)n1 | 9.07 |
| O=C(Nc1cccnc1)c1cc(-c2ccco2)on1 | 7.82 |
| O=C1NC2(CCCCCCC2)C(=O)N1Cc1ccc(F)cc1 | 3.76 |
| C=CCc1ccc(OCCCOc2ccc(C)c(C)c2)c(OC)c1 | -29.2 |
| Cc1nnsc1C(=O)NNS(=O)(=O)c1ccccc1 | 8.81 |
| O=C(C1CCCN(Cc2ccc(F)cc2)C1)N1CCCCC1.O=C(O)C(=O)O (centres unmarked) | 10 |
| O=C(CS(=O)(=O)Cc1ccccc1)Nc1ccc(S(=O)(=O)N2CCOCC2)cc1 | -10 |
| Oc1[nH]c2c(Cl)cc(Cl)cc2c1N=NC(=S)NCC1CCCO1 (centres unmarked) | 7.88 |
| O=C(NCCc1c[nH]c2ccccc12)C(=O)Nc1ccccc1 | 13.7 |
| Cc1ccc(-c2noc(CCC(=O)NCc3ccccc3CN3CCOCC3)n2)cc1 | -36.5 |
| CCN(CC)CCN(C(=O)Cn1nnc(-c2ccc(OC)c(OC)c2)n1)C(C(=O)NC1CCCC1)c1ccc(F)cc1 (centres unmarked) | -35.1 |
| COc1cc(NC(=S)N2CCN(c3ccccn3)CC2)c(OC)cc1Cl | 2.26 |
| COc1ccc(S(=O)(=O)N2CCOCC2)cc1C(=O)Nc1ccc2c(c1)OCO2 | 0.68 |
| COc1cc(C(C#N)N2CCOCC2)ccc1O (centres unmarked) | 13.9 |
| S=C1NCN(Cc2ccco2)CN1c1cccc2ccccc12 | 8.32 |
| CC(C)c1ccc(OCC(O)Cn2cnc3ccccc32)cc1 (centres unmarked) | -11.3 |
| Cc1ccc(S(=O)(=O)NCCC(=O)NC(C)CCc2ccccc2)cc1 (centres unmarked) | -14.8 |
